Reference: PubChem BioAssay AID588342 (National Center for Advancing Translational Sciences (NCATS), 2011)
“And” between values parts separate entries of the source, which are not always exact repeats. Equal entries are not always repeated. About 25,000 (6.9%) of roughly 360,000 compounds were called active. The shares of active, inactive and inconclusive entries below differ from those in the screen. Calls come from the whole dose curve; as a rule, active = well fitted inhibition curve with a large enough effect; inconclusive = small, poorly fitted or top-dose-only effect; inactive = flat fitted curve, though single readings scatter. Where the call is inconclusive, the potency comes from a doubtful curve fit.

molecular target: Luciferin 4-monooxygenase (Photinus pyralis) (UniProt P08659); test: qHTS profiling assay for firefly luciferase inhibitor/activator using purifed enzyme and Km concentrations of substrates (counterscreen for miR-21 project); details: purified FLuc, luminescence inhibition; activity change, negative = inhibition: at 57.5 µM (top of the series); note: nearly all actives have a fitted effect of over 55% in size;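 for activity change, negative = inhibition: plate controls were vehicle for no effect and reference inhibitor for full effect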
Sequence of UniProt P08659 (P08659 whole entry, looked up): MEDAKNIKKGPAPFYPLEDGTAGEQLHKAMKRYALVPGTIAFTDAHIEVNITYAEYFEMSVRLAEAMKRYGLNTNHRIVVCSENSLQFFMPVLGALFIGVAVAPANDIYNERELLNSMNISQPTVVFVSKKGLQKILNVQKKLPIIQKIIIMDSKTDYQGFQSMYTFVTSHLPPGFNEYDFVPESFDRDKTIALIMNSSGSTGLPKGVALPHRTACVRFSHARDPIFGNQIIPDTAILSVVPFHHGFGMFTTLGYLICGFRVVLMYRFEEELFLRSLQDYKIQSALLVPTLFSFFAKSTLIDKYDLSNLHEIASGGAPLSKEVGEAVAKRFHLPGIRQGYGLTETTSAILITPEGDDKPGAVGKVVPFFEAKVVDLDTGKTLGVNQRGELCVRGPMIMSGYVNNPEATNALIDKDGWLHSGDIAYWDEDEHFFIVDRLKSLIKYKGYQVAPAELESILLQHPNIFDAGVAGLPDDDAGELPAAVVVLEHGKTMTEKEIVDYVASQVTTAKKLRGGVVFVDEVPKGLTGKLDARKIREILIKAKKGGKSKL
Procedure, shortened: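 Purified P. pyralis luciferase, 10 nM final, with Km-level 10 uM D-luciferin and 10 uM ATP in 50 mM Tris acetate pH 7.5, 10 mM Mg acetate, 0.01% Tween-20, 0.05% BSA; 6-point qHTS titration about 60 µM downward; luminescence read.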
Potency is the fitted concentration of half-maximal effect; tags give direction and shape of the fitted curve.

Row | SMILES | Potency | activity change, negative = inhibition
1 | CCCCN(C)CCNC(=O)C1CCN(c2nc3ccc(CC)cc3s2)CC1 | active: 12 µM | –
2 | C/C(=N\Nc1cc(N2CCOCC2)ncn1)c1ccccc1 | active: 5.36 µM | –
3 | N/C(=N\OC(=O)c1cccs1)c1cccc(Br)c1 | active: 1.07 µM | –
4 | CCCOc1ccc(-c2cccc(NS(=O)(=O)c3cc(OC)ccc3OC)c2)nn1 | inconclusive: 23.9 µM [inhibitor, partial curve, poor fit] | –
5 | CCN(CC)c1ccc(SS(=O)(=O)O)cc1 | inconclusive: 26.9 µM [inhibitor, partial curve, poor fit] and inconclusive: 23.9 µM [inhibitor, partial curve, poor fit] | –
6 | Fc1ccc(-c2cnn3c(-c4ccncc4)ccnc23)cc1 | active: 1.2 µM | –
7 | CN(C)c1ccc(P(=O)(OCc2ccccc2)C(O)c2ccc(Br)cc2)cc1 (stereo not given) | – | inactive: 1.24%
8 | C/C(=N\Nc1nc2ccccc2s1)c1ccc(Br)s1 | active: 15.1 µM | –
9 | CC1CCc2c(sc(NC(=O)c3ccccc3)c2C(=O)Nc2ccccc2)C1 (stereo not given) | – | inactive: 2.05%
10 | CC(=O)c1ccc(OCc2cccc(C(F)(F)F)c2)cc1O | inconclusive: 26.9 µM [inhibitor, single point] | –
11 | CCOC(=O)CSc1nc2ccc(NC(=O)COc3ccccc3)cc2s1 | inconclusive: 13.5 µM [inhibitor, partial curve] | –
12 | Cc1cccc(CSc2cn(CC(=O)N3CCCCCC3)c3ccccc23)c1 | inconclusive: 3.01 µM [inhibitor, partial curve, poor fit] | –
13 | Cc1ccc(Nc2nc3c(c(=O)[nH]2)CCCC3)cc1 | inconclusive: 23.9 µM [inhibitor, single point] | –
14 | COc1ccc2c(c1OC)C(=O)N1N=C(c3ccc(-c4ccccc4)cc3)CC21 (stereo not given) | inconclusive: 9.53 µM [inhibitor, partial curve] | –
15 | Cc1ccc(/C=N/N2CCN(Cc3ccccc3)CC2)s1 | inconclusive: 26.9 µM [inhibitor, partial curve] | –
16 | CC(C)/C=C1\CC/C(=C\c2cccnc2)C1=O | active: 16.9 µM | –
17 | Cc1cccc(CSc2nc3[nH]ncc3c(=O)[nH]2)c1 | inconclusive: 26.9 µM [inhibitor, partial curve] | –
18 | C=CCn1c(C)cc(C(=O)COc2ccc(S(=O)(=O)N3CCCC3)cc2[N+](=O)[O-])c1C | inconclusive: 16.9 µM [inhibitor, partial curve] | –
19 | O=C(N/N=C/c1cccc(O)c1)NC1CCCCC1 | inconclusive: 30.1 µM [inhibitor, partial curve, poor fit] | –
20 | O=C(N/N=C\c1c(O)ccc2ccccc12)c1cncc(Br)c1 | inconclusive: 37.9 µM [inhibitor, single point] | –
21 | CC(C)[C@H](NC(=O)c1c(F)cccc1F)C(=O)N1CCN(c2ccc(F)cc2)CC1 | – | inactive: 0.408%
22 | Cc1ccc(O)c(Nc2ncnc3ccccc23)c1 | inconclusive: 23.9 µM [inhibitor, single point] | –
23 | N=C1/C(=C\c2ccc(SCc3ccccc3)o2)C(=O)N=C2SC(CC(=O)N3CCOCC3)=NN12 | inconclusive: 21.3 µM [inhibitor, single point] | –
24 | O=C(COc1ccc(S(=O)(=O)N2CCCC2)cc1Cl)NCc1cccnc1 | – | inactive: 1.45%

Row | SMILES | Potency | activity change, negative = inhibition
25 | Cc1ccc(C(C)C)cc1OCC(=O)NNC(=O)Nc1ccccc1 | – | inactive: 1.15%
26 | Cc1ccc(NC(=O)COC(=O)CC2CCCC2)cc1Cl | inconclusive: 30.1 µM [inhibitor, partial curve, poor fit] | –
27 | Cc1nc2cc(-c3cccc(F)c3)nn2c(C)c1CCC(=O)NC1CCCCC1 | active: 12 µM | –
28 | O=C(Cc1ccccc1)Nc1ccc2c(c1)C(=O)N(CC1CCCO1)C2=O (stereo not given) | inconclusive: 19 µM [inhibitor, partial curve] | –
29 | CCOc1ccc(C2C(C#N)=C(N)N3C(=C2C#N)Sc2ccccc23)cc1 (stereo not given) | inconclusive: 23.9 µM [inhibitor, single point] | –
30 | Cn1c(=S)[nH]c2sc3c(c2c1=O)CCC(C(C)(C)C)C3 (stereo not given) | active: 4.26 µM | –
31 | O=C(CCc1nnc(CCCc2ccccc2)o1)NCCCC1CCCC1 | inconclusive: 15.1 µM [inhibitor, partial curve] | –
32 | COc1ccc(OCc2cc(/C=N\NC(=O)c3ccccc3)ccc2OC)cc1 | active: 12 µM | –
33 | O=C(Nc1ccc2c(c1)OCCO2)c1ccc2ccccc2n1 | active: 2.13 µM | –
34 | O=C(COC(=O)c1cc(Cl)ccc1[N+](=O)[O-])Nc1cccc2ccccc12 | inconclusive: 26.9 µM [inhibitor, partial curve, poor fit] | –
35 | Cc1cc2oc(C(=O)Nc3nc(-c4ccccc4)ns3)c(C)c2cc1Cl | inconclusive: 9.53 µM [inhibitor, partial curve] | –
36 | CC(=O)c1ccc(NS(=O)(=O)c2ccc3[nH]c4c(c3c2)CCCCCC4)cc1 | inconclusive: 37.9 µM [inhibitor, partial curve, poor fit] | –
37 | CCOc1cnc(-c2ccccc2F)o1 | active: 16.9 µM | –
38 | S=C(Nc1ccc(Cl)cc1Cl)NC1CCCCC1 | inconclusive: 23.9 µM [inhibitor, single point] | –
39 | C/C(=C\c1ccccc1F)C1Nc2cccc3cccc(c23)N1 | inconclusive: 7.57 µM [inhibitor, single point] | –
40 | Cc1cc(C)cc(NC(=O)COC(=O)c2n[nH]c3ccccc23)c1 | inconclusive: 26.9 µM [inhibitor, partial curve, poor fit] | –
41 | Cc1cc(C)n2nc(C(=O)N/N=C/c3cccc(Cl)c3)nc2n1 | inconclusive: 37.9 µM [inhibitor, partial curve, poor fit] | –
42 | Clc1ccc(-c2nc3ccncc3[nH]2)cc1 | active: 10.7 µM | –
43 | CCOC(=O)c1c(N)sc(C(=O)Nc2ccc3c(c2)OCO3)c1C | active: 0.426 µM | –
44 | COC(=O)/C(=C\c1cc(OC)c(OC)c(OC)c1)c1nc2ccccc2[nH]1 | inconclusive: 37.9 µM [inhibitor, single point] | –
45 | O=C(Nc1ccc(Cl)cc1)c1ccc2c(=O)n3c(nc2c1)CCCCC3 | inconclusive: 21.3 µM [inhibitor, single point] | –
46 | C=CCOc1ccc(C=Nc2ccc(C)c(Cl)c2)c(O)c1 | inconclusive: 21.3 µM [inhibitor, partial curve, poor fit] | –
47 | COc1ccc(NC(=O)Nc2ccc(OCc3ccccc3)cc2)cn1 | – | inactive: -0.887%
48 | CCc1ccc(OCc2ccc(C(=O)OC)o2)cc1 | active: 16.9 µM | –

Row | SMILES | Potency | activity change, negative = inhibition
49 | Cc1nc2nc[nH]n2c(=O)c1C/C=C/c1ccccc1 | inconclusive: 37.9 µM [inhibitor, partial curve, poor fit] | –
50 | O=C(NNC(=S)NC(=O)C12CC3CC(CC(C3)C1)C2)c1ccncc1 | inconclusive: 30.1 µM [inhibitor, partial curve] | –
51 | CCOC(=O)C1=C(COC(=O)c2ccc([N+](=O)[O-])o2)NC(=O)NC1C (stereo not given) | – | inactive: 2.7%
52 | CCOc1cc(NS(=O)(=O)c2ccc(NC(C)=O)cc2)c(OCC)cc1NC(=O)c1cccs1 | – | inactive: -1.78%
53 | COc1cccc(-n2c(N)c(-c3nc4ccccc4[nH]3)sc2=S)c1 | inconclusive: 19 µM [inhibitor, single point] | –
54 | O=C(c1cc2ccccc2o1)N(Cc1nnc(-c2ccccc2Cl)o1)C1CC1 | active: 30.1 µM | –
55 | COc1ccc(C(=O)Nc2cccc(/C=C/c3nc4ccccc4c(=O)[nH]3)c2)cc1 | inconclusive: 7.57 µM [inhibitor, partial curve] | –
56 | CCOc1ccc(Nc2n[nH]c(=S)s2)cc1 | inconclusive: 26.9 µM [inhibitor, partial curve, poor fit] | –
57 | CCc1ccc(NS(=O)(=O)c2ccc3[nH]cc(C(=O)NC4CCCC4)c(=O)c3c2)cc1 | inconclusive: 9.53 µM [inhibitor, partial curve] | –
58 | Cc1ccc([N+](=O)[O-])cc1NC(=O)c1ccc(C(C)(C)C)cc1 | inconclusive: 15.1 µM [inhibitor, partial curve, poor fit] | –
59 | CCc1cccc(NC(=O)CSC2=NS(=O)(=O)c3ccccc32)c1 | inconclusive: 12 µM [inhibitor, partial curve, poor fit] | –
60 | COc1ccc(-c2nnn(CC(=O)Nc3ccc4c(c3)OCCO4)n2)cc1OC | – | inactive: 6.46%
61 | Cc1cc(/C=C(\C#N)C(=O)O)c(C)n1CC1CCCO1 (stereo not given) | inconclusive: 37.9 µM [inhibitor, partial curve, poor fit] | –
62 | CCc1ccc(NC(=O)c2cc3ccccn3n2)cc1 | active: 1.9 µM | –
63 | CCCc1ccc2oc(C(=O)N(C)CCn3ccnc3C)c(C)c2c1 | inconclusive: 37.9 µM [inhibitor, partial curve, poor fit] | –
64 | O=C(CSc1nc(=O)[nH]c2c1CCCC2)Nc1cc(C(F)(F)F)ccc1Cl | – | inactive: -12.1%
65 | Cc1ccc(C)c(NC(=S)N(Cc2ccc(Cl)cc2)Cc2ccc(C(=O)O)cc2)c1 | inconclusive: 26.9 µM [inhibitor, partial curve, poor fit] | –
66 | NC(=O)c1ccccc1NC(=O)/C=C/c1cccc(Cl)c1 | active: 6.75 µM | –
67 | COc1ccc(C2C(C(=O)Nc3ccccc3)=C(C)Nc3nc(-c4ccccc4)nn32)cc1OC (stereo not given) | – | inactive: 0.167%
68 | CCC(C)c1ccc(OCC(=O)Nc2ccc(CN3CCOCC3)cc2)cc1 (stereo not given) | inconclusive: 37.9 µM [inhibitor, partial curve, poor fit] | –
69 | COc1ccc(-c2sc(Nc3ccccc3)n[n+]2-c2ccccc2)cc1Br | inconclusive: 37.9 µM [inhibitor, single point] | –
70 | CC(/C=C1\SC(=S)N(CC(=O)O)C1=O)=C\c1ccccc1 | active: 16.9 µM | –
